Assay results from PubChem BioAssay AID493208 (National Center for Advancing Translational Sciences (NCATS), 2011).
About 340 (0.77%) of roughly 44,000 compounds were called active. Not shown: some 5% with an inconclusive outcome. Calls follow the shape of the dose curve; as a rule, active = well fitted inhibition curve with a large enough effect; inconclusive = small, poorly fitted or top-dose-only effect; inactive = flat fitted curve, though single readings scatter. The list shows a part of the results.

Test: Acumen qHTS Assay for Inhibitors of the mTORC1 Signaling Pathway in MEF (Tsc2-/-, p53-/-) Cells: Sytravon;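 also: plate controls were DMSO for no effect and rapamycin for full effect; nearly all actives have a fitted effect of over 50% in size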
Details: phospho-rpS6 immunofluorescence/PI, 24 h; series mostly up to 38.3 µM; activity change, negative = inhibition: at the top concentration
How it was run: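 Plate MEFs (Tsc2-/-, p53-/-, empty vector) in DMEM/10% FBS; after 24 h add compound, incubate 24 h at 37 degree Celsius; fix in PFA/TX-100, block, stain phospho-rpS6 and 10 uM PI; scan at 488 nm; report % positive cells.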

Row | SMILES | activity change, negative = inhibition
1 | COc1cccc(-c2cc(C(F)(F)F)n3ncc(C(=O)OC(C)C)c3n2)c1 | inactive: -3.29%
2 | Cc1ccc(-c2noc(CNC(=O)c3ccc(C)c(Cl)c3)n2)cc1 | inactive: -18.2%
3 | CCCOc1ccc(C2C(=O)N(C3CCC(C)CC3)CC(=O)N2CCc2ccccc2)cc1OC (stereo unspecified) | inactive: -8.07%
4 | CCN(CC)C(=O)C1=C(C)Nc2nc3ccccc3n2C1c1cccc(OC)c1 (stereo unspecified) | inactive: 3.07%
5 | Cc1ccc(-n2c(C)cc(/C=C(\C#N)C(=O)Nc3ccc(C)c(C)c3)c2C)cc1 | inactive: 1.17%
6 | COc1ccc(NC(=O)[C@H](Cc2ccccc2)N2Cc3ccccc3C2=O)cc1OC | inactive: -0.809%
7 | COc1cccc(NC(=O)Cn2c(=O)n(Cc3ccc4c(c3)OCO4)c(=O)c3oc4ccccc4c32)c1 | inactive: 4.37%
8 | Cc1ccc(-n2ncc(C(=O)NCCN3CCN(C)CC3)c2C2CCN(C(=O)OC(C)(C)C)CC2)cc1C | inactive: 6.06%
9 | CCOc1ccc(CNC(=O)Cn2c(=O)c3cccn3c3cccnc32)cc1 | inactive: -5.9%
10 | COc1ccc2c(c1)c(N1CCCC1=O)c(C(=O)Nc1ccc(OC)c(Cl)c1)n2C | inactive: -9.43%
11 | CC(=O)c1cccc(NS(=O)(=O)c2c(C(=O)N3CCCCCC3)c(C)n(C)c2C)c1 | inactive: -3.16%
12 | CCc1ccc(NC(=O)c2cc(S(=O)(=O)NC3CCCCCC3)ccc2F)cc1 | inactive: -22.4%
13 | Cc1nn(-c2ccccc2)c2c1N(CC(=O)N1CCN(c3ccc(Cl)cc3)CC1)C(=O)CS2 | inactive: -7.62%
14 | Cc1nn(-c2ccccc2)c2c1N(CCCC(=O)NC(C)c1ccccc1)C(=O)CS2 (stereo unspecified) | inactive: -2.17%
15 | Cc1ccc(S(=O)(=O)c2cn(Cc3ccccc3)c3cc(N4CCOCC4)c(F)cc3c2=O)cc1 | inactive: 7.57%
16 | CCc1ccc(CNC(=O)CCn2nc(C)c3c(C)n(-c4ccccc4)nc3c2=O)cc1 | inactive: 0.139%
17 | COc1cc(NC(=O)c2noc3c2CC(C)CC3)c(OC)cc1Cl (stereo unspecified) | inactive: 1.99%
18 | CC1CCC(NC(=O)c2ccc(CSc3nc4ccncc4n3Cc3ccc(F)cc3)cc2)CC1 (stereo unspecified) | inactive: 0.778%
19 | Cc1nn(CCCC(=O)Nc2ccccc2C(F)(F)F)c(=O)c2nn(-c3ccccc3)c(C)c12 | inactive: -2.9%
20 | Cc1nn2c(-c3ccccc3)cc(-c3ccccc3)nc2c1-c1ccc(Cl)cc1 | inactive: -0.0502%
21 | COc1ccc(C(CC(=O)Nc2ncccc2C)N2Cc3ccccc3C2=O)cc1OC (stereo unspecified) | inactive: -4.23%
22 | O=C(Nc1ccccc1)c1cccc(N2CCCS2(=O)=O)c1 | inactive: -2.61%
23 | Cc1cc(C)n2nc(CNC(=O)c3ccc(Cl)cc3)nc2n1 | inactive: 2.03%
24 | COc1cccc(-c2nc(CS(=O)(=O)CC(=O)N3CCN(c4ccccc4)CC3)c(C)o2)c1 | inactive: 0.0409%
25 | Cc1ccc(Cl)cc1N1CCN(C(=O)c2ccc3c(Cl)c4c(nc3c2)CCCC4)CC1 | inactive: -0.27%
26 | O=C(Cn1c(=O)ccc2cc(S(=O)(=O)N3CCCC3)ccc21)Nc1ccccc1 | inactive: -7.57%
